Source: PubChem BioAssay AID1745853 (National Center for Advancing Translational Sciences (NCATS), 2022)
Some of the results follow. Further columns of the screen follow, without active or inactive calls.

Key:
Test in all cases: Primary Screen for Target Class Profiling of Small Molecule Inhibitors of Methyltransferases
[1] = biological target: Glycine N-methyltransferase (Homo sapiens) (UniProt Q14749); details: purified enzyme, MTase-Glo SAH luminescence; measured here: GNMT inhibition; at 40 µM; stronger effect = lower value
How it was run: (§1)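 Each enzyme was reacted with SAM and its substrate, with compounds tested once at 40 uM; SAH formed was read by MTase-Glo luminescence.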

[2] = biological target: Guanidinoacetate N-methyltransferase (Homo sapiens) (UniProt Q14353); details: purified enzyme, MTase-Glo SAH luminescence; measured here: GAMT inhibition; at 40 µM; stronger effect = lower value
How it was run: as §1

[3] = biological target: Histamine N-methyltransferase (Homo sapiens) (UniProt P50135); details: purified enzyme, MTase-Glo SAH luminescence; measured here: HNMT inhibition; at 40 µM; stronger effect = lower value
How it was run: as §1

[4] = biological target: Nicotinamide N-methyltransferase (Homo sapiens) (UniProt P40261); details: purified enzyme, MTase-Glo SAH luminescence; measured here: NNMT inhibition; at 40 µM; stronger effect = lower value
How it was run: as §1

[5] = biological target: Phenylethanolamine N-methyltransferase (Homo sapiens) (UniProt P11086); details: purified enzyme, MTase-Glo SAH luminescence; measured here: PNMT inhibition; at 40 µM; stronger effect = lower value
How it was run: as §1
% is scaled to controls: 0 for no effect and ±100 for the full control effect.

Compound | activity change, negative = inhibition [1] [%] | activity change, negative = inhibition [2] [%] | activity change, negative = inhibition [3] [%] | activity change, negative = inhibition [4] [%] | activity change, negative = inhibition [5] [%]
C[C@@H]1CC[C@]2(C(=O)O[C@@H]3O[C@H](CO)[C@@H](O)[C@H](O)[C@H]3O)CC[C@]3(C)C(=CCC4[C@@]5(C)C[C@@H](O)[C@H](O)[C@@](C)(C(=O)O[C@H]6[C@H](O)C[C@@]7(C)C(CC[C@]8(C)C7CC=C7[C@H]9[C@](C(=O)O[C@@H]%10O[C@H](CO)[C@@H](O)[C@H](O)[C@H]%10O)(CC[C@@H](C)[C@@]9(C)O)CC[C@]78C)[C@@]6(CO)C(=O)O)C5CC[C@]43C)[C@@H]2[C@]1(C)O (some centres undefined) | -3.84 | 7.09 | 3.71 | -6.3 | 9.85
COc1cccc(-c2ccc(CN3CCCC(N[S+](=O)([O-])c4ccc(C)cc4)C3)cc2)c1 (centres undefined) | -0.468 | -0.451 | 0.749 | -4.28 | -0.462
O=S(=O)(NCc1ccccc1Cl)c1ccc2[nH]c3c(c2c1)CCCC3 | -8.34 | -2.29 | -5.85 | -13.9 | -2.89
CCN(Cc1ccncc1)C(=O)CC1C(=O)NCCN1CCc1ccccc1 (centres undefined) | -3.75 | 3.23 | -38.1 | -2.11 | 7.92
COCCOc1cc2ncnc(Cl)c2cc1OCCOC | 3.63 | 9.95 | 3.94 | -0.075 | 7.41
CCCn1c(=O)c2ccc(C(=O)NC3CCCC3)cc2n2c(=O)n(Cc3ccccc3F)nc12 | -4.34 | 3.3 | -3.8 | -10.6 | -4.89
CCc1ccc(CN2C(=O)c3cc(-c4ccccc4)nn3CC2(C)C(=O)NCc2ccccc2)cc1 (centres undefined) | -3.44 | 1.23 | -4.06 | -3.99 | -6.82
O=C(COc1ccccc1)N1C[C@@H]2C[C@H](C1)c1c(NS(=O)(=O)c3ccccc3)ccc(=O)n1C2 | -5.74 | -8.86 | -2.61 | -12.5 | -7.53
Cc1c(OCC(=O)OCc2ccccc2)ccc2c(-c3ccccc3)cc(=O)oc12 | -2.38 | 0.894 | 7.25 | 5.92 | -1.16
C/C1=C\[C@H]2OC(=O)[C@@H](C)[C@@H]2CC/C(C(=O)O)=C/CC1 | -8.67 | -9.99 | -21.5 | -18 | -2.13
CN(C)CCN1C(=O)c2cc3occc3n2CC1(C)C(=O)NC1CCCCCC1 (centres undefined) | -0.242 | 1.95 | 2.38 | 1.52 | -1.96
CCOc1ccc(CN2C(=O)c3cc(-c4ccccc4)nn3CC2(C)C(=O)NCc2ccccc2)cc1 (centres undefined) | 2.34 | 1.01 | 4.58 | -3.8 | -3.98
O=c1[nH]c(=O)n([C@H]2C[C@H](O)[C@@H](CO)O2)cc1Br | -4 | 3.58 | -3.62 | -9.73 | 2.26
COc1ccc(CCN2C(=O)c3cc4ccccc4n3CC2(C)C(=O)NCCC(C)C)cc1OC (centres undefined) | 3.97 | 1.24 | 5 | -11.2 | 2.94
CN1C(=O)CO[C@H]2CN(Cc3c[nH]c4ccccc34)C[C@H]21 | -6.39 | -14.5 | -6.38 | -22.5 | -17.2
CC(=O)NC(CCC(=O)O)C(=O)NCCc1ccc(O)cc1 (centres undefined) | 1.03 | 8 | -3.62 | -5.08 | 4.34
COc1ccc(CCNC(=O)c2cc3n(n2)CC(C)(C(=O)NCc2ccccc2)N(C)C3=O)c(OC)c1 (centres undefined) | 1.1 | 1.35 | 2.18 | 0.663 | 0.245
O=C(COc1ccccc1)N1CCC(c2n[nH]c(=O)n2Cc2ccc(F)cc2)CC1 | -1.86 | 0.215 | -3.25 | -2.84 | 0.628
Cc1ccc(NC(=O)CSc2nnc3n(C)c(=O)c4ccc(C(=O)NC5CCCC5)cc4n23)cc1 | -1.6 | 2.17 | 1.53 | -1.04 | 2.48

Compound | activity change, negative = inhibition [1] [%] | activity change, negative = inhibition [2] [%] | activity change, negative = inhibition [3] [%] | activity change, negative = inhibition [4] [%] | activity change, negative = inhibition [5] [%]
COCC1CN(C)CC12CCN(C(=O)c1cc3ccccc3[nH]1)CC2 (centres undefined) | -5.47 | 1.93 | -17.7 | -6.83 | 10
O=S(=O)(c1ccc(F)cc1)N1CCC(n2cnnc2-c2ccccc2)CC1 | 1.48 | 0 | 13 | 4.49 | 5.88
COCC[C@]1(O)CCN(C(=O)CCCc2ccccc2)C[C@H]1C | -1.13 | 1.84 | 1.01 | 5.12 | 12
Nc1cccc(CNC(=O)c2ccc(Oc3ccc(OCc4cccc(F)c4)cc3)nc2)c1 | -0.923 | -14.8 | -2.25 | -32.5 | -15
Cc1cccc(N2C(=O)c3cc4sccc4n3CC2(C)C(=O)NC2CCCC(C)C2C)c1C (centres undefined) | 0.824 | -6.7 | 2.99 | 3 | 1.41
CC1OC(OC2CCC3(C)C(CCC4(C)C3C=CC35OCC6(CCC(C)(C)CC63)CCC45C)C2(C)CO)C(OC2OC(CO)C(O)C(O)C2O)C(O)C1OC1OC(CO)C(O)C(O)C1O (centres undefined) | 2.26 | 4.27 | 5.71 | -4.93 | 1.52
CCc1nc2c(=O)n(CC(=O)NCc3ccco3)nc(C)c2s1 | -3.37 | -5.38 | -1.08 | -3.24 | -3.29
CC(=O)Nc1c2n(c3ccc(F)cc13)CC(C)(C(=O)NC1CCCC1)N(C1CCCCC1)C2=O (centres undefined) | -4.18 | 0 | 2.02 | -12 | -2.18
COc1cccc(-c2ccc(C(=O)NCCNC(=O)Cc3ccc(F)cc3)cc2)c1 | -6.18 | -4.75 | -3.36 | -8.44 | -24.3
CCNC(=O)[C@@H]1C[C@H](NC(C)=O)CN1C1CCN(c2ccc(C)cc2)CC1 | -10.2 | -8.29 | -5.9 | -12.2 | -2.17
Cc1ccc([N+](=O)[O-])cc1S(=O)(=O)N(C)/N=C/c1cnc2ccc(Br)cn12 | -16.6 | -9.4 | -9.32 | -62.8 | -15.7
CC1(C)C[C@H](NC2CCC2)[C@@]2(CCC(=O)NCc3cccnc3)CC[C@](C)(O)C[C@@H]12 | -0.706 | -1.75 | -11.3 | -5.69 | -2.87
CC(C)CCNC(=O)C1(C)Cn2nc(C(=O)NCc3ccccc3F)cc2C(=O)N1C (centres undefined) | 1.04 | 4.36 | 4.24 | 2.8 | 0.396
CCN1CCN(C(=O)c2cc(-c3ccccc3)cn2C)CC1 | -7.16 | -8.95 | -4.64 | -11.7 | -6.82
CCOCCCNC(=O)C1c2c(n(C)c3ccccc23)SCC(=O)N1CCc1ccsc1 (centres undefined) | 4 | 1.52 | -3.73 | -0.57 | 2.04
C=C1C(=O)OC2/C=C(\CO)CC/C=C(\C=O)C(OC)C(OC(=O)C(C)CC)C12 (centres undefined) | 3.71 | 7.72 | 3.03 | -4.72 | 6.48
COc1cc(/C=C/C(=O)OCC2OC(OC3(CO)OC(CO)C(O)C3O)C(O)C(O)C2O)ccc1O (centres undefined) | 2.59 | 3.86 | 9.08 | -7.97 | -0.638
COC(=O)c1ncn2c1C(=O)N(C1CC1)C(C)(C(=O)NCCCOC(C)C)C2 (centres undefined) | -6.41 | 4.68 | -4.27 | -4.98 | -2.32
C=C1C(=O)O[C@@H]2/C=C(/C)[C@@H](OC(C)=O)C/C=C(\C)C[C@@H](OC(=O)/C(=C/CO)CO)[C@@H]12 | -5.27 | -0.388 | 0.212 | -11.3 | 3.52

Compound | activity change, negative = inhibition [1] [%] | activity change, negative = inhibition [2] [%] | activity change, negative = inhibition [3] [%] | activity change, negative = inhibition [4] [%] | activity change, negative = inhibition [5] [%]
C/C=C(\C)C(=O)OC1C2(O)CC3=C4CC(=O)OC(c5ccoc5)C4(C)CCC3C(C)(C2=O)C(C(OC(C)=O)C(=O)OC)C1(C)C (centres undefined) | 3.37 | 6.23 | 6.54 | -11.2 | -3.73
Cc1ccc(CNC(=O)C(C)n2ccc3cc(S(=O)(=O)N4CCCCC4)ccc32)cc1 (centres undefined) | 0.403 | 6.76 | -3.59 | -9.55 | -0.805
COCc1cccc(-c2n[nH]c3c2CC(=O)N(CCc2ccncc2)C3)c1 | -25.6 | -12 | -19.5 | -14.3 | -25.3
COc1cccc(Nc2cn(C)c(=O)n3cc(COc4ccccc4)nc23)c1 | -12.6 | -7.76 | -6.16 | -11.8 | -23.1
CCCCCCCc1ccc(CCc2cccc(O)c2C(=O)O)cc1 | -32.7 | – | -19.6 | -35.6 | 11.4
Cn1c(=O)c2ccc(C(=O)NC3CCCCC3)cc2n2c(SCC(=O)NC3CCCCC3)nnc12 | -0.864 | 5.93 | 10 | 6.04 | 8.15
CC(C)c1ccc(CN2CC(CNC(=O)C3CCOCC3)C3(C2)CN(c2ccccc2)C3)cc1 (centres undefined) | -2.71 | -1.02 | -0.672 | -3.88 | 1.83
COC[C@H]1C[C@@H](NC(=O)c2c(-c3ccccc3)noc2C)[C@H](O)[C@@H]1O | -2.47 | -1.98 | -2.89 | 3.83 | -2.08
COc1ccc(NC(=O)N2CCOC(c3ccc(Cl)cc3)C2)c(C)c1 (centres undefined) | -3.96 | -8.45 | -2.83 | -9.81 | -5.86
Nc1nccc(N2CCC3(CCC(=O)N(CC4CCCO4)C3)CC2)n1 (centres undefined) | 1.85 | 0.177 | -42.7 | -5.21 | 14.3
CC1(C(=O)NC2CCCCC2)Cn2c(cc3ccccc32)C(=O)N1Cc1ccccc1F (centres undefined) | -2.45 | 0 | 5.05 | -0.527 | -5.68
C=CCNC(=O)c1cnn2cc(C)ccc12 | -3.57 | -0.976 | -0.522 | -6.26 | -3.82
CCN(CC)CC(O)CN1CCn2c3c(c4cc(C)ccc42)CCCC31 (centres undefined) | 3.82 | 0 | 2.55 | 9.45 | 2.99
CC(C)CCn1c(=O)c2ccccc2n2c(=O)n(CC(=O)N3CCN(c4ccccc4F)CC3)nc12 | -4.43 | 2.98 | 0.201 | -8.96 | 0.218
C/C(=C\CCC(C)CCO)C(=O)OC[C@H]1O[C@@H](O[C@@H]2OC=C(C(=O)O)[C@H]3CC[C@](C)(O)[C@@H]23)C(O)[C@@H](O)C1O (some centres undefined) | -0.025 | 1.27 | 10.1 | -10.9 | 4.36
Cc1cc(C)c(NS(=O)(=O)c2ccc3[nH]c4c(c3c2)CCCC4)c(C)c1 | 6.51 | 0 | 4.98 | -0.777 | 1.26
CC(C)(N)C(=O)N[C@H](COCc1ccccc1)C(=O)N1CCC2(CC1)CN(S(C)(=O)=O)c1ccccc12 | 4.78 | 7.44 | 5.88 | -7.61 | -0.602
CC(C)CCn1c(=O)c2ccc(C(=O)NC3CCCC3)cc2n2c(=O)n(Cc3ccc(F)cc3)nc12 | -2.19 | 3.53 | -0.035 | 2.39 | -0.059
